The structures appear in SMILES notation. Some of the results follow. Entries with a potency or affinity are not part of this list.

A word on the Inhibition: it is the change of the read-out against control, counted positive when it falls.

This experiment deals with Acinetobacter baumannii. The conditions noted are these: Concentration 32 ug.mL-1; ASSAY_TEST Inhibition of Bacterial Growth; detection method Absorption (OD600); MEDIA CAMHB; plate type 384well; NBS; CORNING #3640; time 18 hr.
Take `Cl.NC1(C(=O)O)CC1c1ccccc1` (configuration not stated): the Inhibition was 0.02%. The same measure for `CN(Cc1cn(Cc2ccccc2)nn1)Cc1cc2cc(OCCCC3CCN(Cc4ccccc4)CC3)ccc2n1C`: 0.85%; for `N#Cc1cc2c(N)c3c(nc2nc1N1CCCCC1)CCCC3`: 27.68%. Take `CCOC(=O)c1cc2cc(OC(=O)Oc3ccc([N+](=O)[O-])cc3)ccc2[nH]1`: the Inhibition is given as 8.04%. In the case of `COc1ccc(C2c3c(ccc4ccccc34)OC(=NBr)C2(Br)C#N)cc1OC` (configuration not stated), the Inhibition is recorded as -8.68%. With `O[C@H]1CC[C@H](NCc2ccccc2)CC1`, the Inhibition is on record as 16.65%. The same measure for `CCOc1nc2nc(C)c(C=C3CCN(Cc4ccccc4)CC3)cc2c(-c2ccccc2)c1C#N`: -1.33%; for `COc1ccc(-c2cc(-c3ccccc3)c(C#N)c(N)n2)cc1`: -6.82%; for `O=C(N/N=C/Cc1ccccc1)c1cc2ccccc2n1Cc1ccccc1`: 0.71%.

Regarding `CNC(=O)c1cc2cc(OC)ccc2[nH]1`, the Inhibition was found to be 1.46%. The same measure for `N#CC1(Br)C(=NBr)Oc2c(ccc3ccccc23)C1c1cccc([N+](=O)[O-])c1` (configuration not stated): -0.35%; for `COc1ccccc1[C@H]1c2c(ccc3ccccc23)O/C(=N\Br)[C@@]1(Br)C#N`: 0.87%; for `Nc1ccccc1C(=O)N/N=C/c1c[nH]c2ccccc12`: -9.81%. The same measure for `C#CCNc1nc(NC2CCN(Cc3ccccc3)CC2)c(C#N)c(-c2ccccc2)c1C#N`: -6.34%; for `COc1ccc(C2c3c(nc4c(c3N)CCCC4)Oc3ccc4ccccc4c32)cc1` (configuration not stated): -20.83%. Under `CCOC(=O)C1=C(C)OC(N)=C(C#N)C1c1ccncc1` (configuration not stated) stands 9.18%. As to `CCOC(N)=CC#N`, the Inhibition worked out at 7.15%. The same measure for `COc1ccc(C2C(C#N)=C(N)Oc3[nH]nc(C)c32)cc1` (configuration not stated): -4.21%; for `N#CC1(Br)C(=NBr)Oc2ccc3ccccc3c2C1c1cccc([N+](=O)[O-])c1` (configuration not stated): 7.49%; for `Cn1c(C(=O)O)cc2ccccc21`: -3.44%.

On to `Cc1nc(Nc2ccccc2)c2c(C)nn(-c3ccccc3)c2n1`, for which the Inhibition worked out at 7.57%. The same measure for `CN(C)c1nc(N)c(C#N)cc1C#N`: -1.69%; for `Nc1nc(N)c(C=O)c(-c2ccccc2)c1C=O`: 5.37%. The same measure for `Nc1c2c(nc3c1C(c1c(Cl)cccc1Cl)c1ccc4ccccc4c1O3)CCCC2` (configuration not stated): -3.08%; for `C#CCN(C)Cc1cc2cc(OCOc3ccc4c(c3)cc(CN(C)CC#C)n4C)ccc2n1C`: 4.72%; for `C=CCNc1nc(N)c(C#N)cc1C#N`: 7.75%. Under `Cl.Cl.Cn1c(CNc2ccccc2)cc2cc(OCCCC3CCN(Cc4ccccc4)CC3)ccc21` stands 8.45%; under `COc1ccc(CNNC(=O)c2cc3ccccc3[nH]2)cc1O`, 0.94%. Take `CCOc1nc2nc(CCc3ccccc3)ccc2c(-c2ccccc2)c1C#N`: the Inhibition was determined as 8.83%. The same measure for `COc1cc(C2C(C#N)=C(N)Oc3c2ccc2ccccc32)ccc1O` (configuration not stated): 0.3%. Under `CSC1=NC(=Cc2cn(C(c3ccccc3)(c3ccccc3)c3ccccc3)c3ccccc23)C(=O)N1C` stands 5.84%; under `CC(C)CC(C)NNC(=O)c1cc2ccccc2[nH]1` (configuration not stated), -10.74%. Under `CC(C)C(=O)N/N=C/c1c[nH]c2ccccc12` stands 3.44%. As to `Cc1ccc(C2c3ccc4ccccc4c3Oc3nc4c(c(N)c32)CCCC4)cc1` (configuration not stated), the Inhibition is listed as -13.4%. The same measure for `N#Cc1cc(C#N)c(NCCC2CCN(Cc3ccccc3)CC2)nc1N`: -4.7%; for `C#CCNc1nc(N)c(C#N)c(-c2ccccc2)c1C#N`: 6.11%. The same measure for `CCOC(=O)c1c(C)[nH]c(=O)c(C#N)c1-c1ccccc1`: 7.57%; for `Cc1ccc(-c2c(C#N)c(N)nc3c2S(=O)(=O)OC3(C)C)cc1`: -3.73%. The same measure for `N#C[C@]1(Br)C(=N)Oc2ccc3ccccc3c2[C@@H]1c1ccc([N+](=O)[O-])cc1`: -2.93%; for `Cl.OCC1CCN(Cc2ccccc2)CC1`: -0.64%. With `Cc1[nH]c2ccc(OCc3ccccc3)cc2c1C(=O)NN`, the Inhibition is -3.46%. The same measure for `C#CCN(C)c1nc(NCCC2CCN(Cc3ccccc3)CC2)c(C#N)cc1C#N.Cl`: -7.83%; for `COc1ccc(C2c3ccc4ccccc4c3OC(=NBr)C2(Br)C#N)cc1OC` (configuration not stated): 5.46%; for `Cn1cc(C=O)c2ccccc21`: 1.96%. Under `Cc1nc2c3cnn(-c4ccccc4)c3ncn2n1` stands 0.69%. Under `CC#CCN(C)Cc1cc2cc(OCc3ccccc3)ccc2n1C.O=C(O)C(=O)O` stands -16.39%; under `COc1ccc(C2C(C#N)=C(N)Oc3ccc4ccccc4c32)cc1OC` (configuration not stated), 5.81%. For the compound `COc1ccc2c(c1)cc(CO)n2C`, the Inhibition was 10.29%. Regarding `NOC(=O)C1CCN(Cc2ccccc2)CC1`, the Inhibition is listed as -3.02%.

As to `N#Cc1cc(C#N)c(N2CCCC2)nc1N`, the Inhibition came out at 7.32%. The same measure for `COc1cccc(C2c3ccc4ccccc4c3OC(=NBr)C2(Br)C#N)c1` (configuration not stated): 0.8%; for `COc1ccc(-c2cc(-c3cc4ccccc4nc3Cl)cc(=O)[nH]2)cc1`: 7.43%. The same measure for `Cc1ccc(C2c3ccc4ccccc4c3Oc3nc4c(c(N)c32)CCCC4)cc1.Cl` (configuration not stated): -7.54%. The same measure for `O=C(NNCc1ccco1)c1cc2ccccc2[nH]1`: -13.18%; for `COc1ccc2c(c1)cc(CN)n2C`: 1.13%; for `CNCc1cc2ccccc2n1C.Cl`: 15.36%.

Regarding `N#CC1=C(Cl)Oc2ccc3ccccc3c2C1c1ccccc1` (configuration not stated), the Inhibition is on record as -0.13%. The same measure for `COc1ccc(C2c3c(ccc4ccccc34)OC(=NBr)C2(Br)C#N)cc1` (configuration not stated): 5.41%. Consider `C/C(Cc1ccccc1)=N\NC(=O)c1c[nH]c2ccccc12`, for which the Inhibition was 1.21%. For the compound `CC1(C)OC(=O)C(=Cc2ccc([N+](=O)[O-])cc2)C(=O)O1`, the Inhibition was -3.37%. Under `COc1[nH]c(=O)ccc1C#N` stands 7.22%; under `C#CCN(C)Cc1cc2cc(OCCC3CCN(Cc4ccccc4)CC3)ccc2n1C.Cl`, -0.11%; under `O=C(O)/C(=C\c1ccccc1)NC(=O)c1ccccc1`, 2.34%. In the case of `O=Cc1c(-c2ccc(Br)cc2)nc2ccccn12`, the Inhibition is -2.16%. The same measure for `CC(=O)CCc1c[nH]c2ccccc12`: 1.93%; for `Cn1c(C(=O)N2CCOCC2)cc2cc(OCCCC3CCN(Cc4ccccc4)CC3)ccc21`: 9.51%. Take `O=C1SC(SCc2ccccc2)=NC1=Cc1ccc2c(c1)OCO2`: the Inhibition amounted to 3.86%. Under `C=C1CN(C)c2c(C#N)cc(C#N)c(=N)n21` stands 6.5%; under `N#Cc1cc(C#N)c(NCCO)nc1N`, 7.07%; under `CCOC(=O)C1=C(C)OC(N)=C(C#N)C1c1ccc(OC)cc1` (configuration not stated), -3.58%. Turning to `CCC(CC)NNC(=O)c1cc2ccccc2n1C`, the Inhibition stood at 6.76%. Regarding `N#CCC(=C(C#N)C#N)c1ccccc1`, the Inhibition is -2.63%.

In the case of `CC(=O)Oc1cccc(C=C2N=C(c3ccccc3)OC2=O)c1`, the Inhibition is listed as 12.29%. Under `Clc1ccc(-c2cn3ccccc3n2)cc1` stands 4.91%. The same measure for `O=C(N/N=C/c1c[nH]c2ccccc12)c1ccco1`: 3.07%; for `Cc1ccc2nc(Cl)c(/C=N/C(C)(C)C)cc2c1`: 11.21%. The same measure for `Cc1ccc2[nH]c(=O)c(C=O)cc2c1`: 9.57%; for `CCOC(=O)c1cc2cc(OC)ccc2n1C`: -6.47%; for `OCc1cc2ccccc2[nH]1`: -4.62%. In the case of `Br.C#CCNCC`, the Inhibition was 4.5%.

As for `Cc1ccc(C2C(C#N)=C(N)Oc3c2ccc2ccccc32)cc1` (configuration not stated), the Inhibition was -13.43%.

On to `CCOC(=O)C1=C(C)Nc2nc3c(c(N)c2C1c1cccc(OC)c1)CCCC3` (configuration not stated), for which the Inhibition amounted to 11.14%.

Turning to `Nc1c2c(nc3c1C(c1ccc(O)cc1)c1c(ccc4ccccc14)O3)CCCC2` (configuration not stated), the Inhibition is given as -2.52%. The same measure for `O=C(NNC(Cc1ccccc1)Cc1ccccc1)c1cc2ccccc2[nH]1`: -9.13%; for `CCOC(=O)c1c(C)nc(/N=N/c2nc(C)c(C(=O)OCC)c(-c3ccccc3)c2C#N)c(C#N)c1-c1ccccc1`: -5.12%; for `Cc1nn(-c2ccccc2)c2nc(C)n3nc(-c4ccccc4)nc3c12`: 7.64%. Regarding `CCOC(=O)c1cc2c(N)c3c(nc2nc1C)CCCC3`, the Inhibition came to 14.51%. The same measure for `N#CC1=C(Cl)Oc2c(ccc3ccccc23)C1c1ccccc1[N+](=O)[O-]` (configuration not stated): -8.55%.

For the compound `C#CCN(C)c1nc(NCC2CCN(Cc3ccccc3)CC2)c(C#N)c(-c2ccccc2)c1C#N.Cl`, the Inhibition is listed as -17.77%. For `COc1ccc(-c2cc(-c3cc4ccc(OC)cc4nc3Cl)cc(=O)[nH]2)cc1`, the Inhibition is reported as -1.26%. The same measure for `C#CCN(C)c1nc(OC)c(C#N)c(-c2ccccc2)c1C#N`: 9.35%; for `Cn1c(CO)cc2cc(OCCCC3CCN(Cc4ccccc4)CC3)ccc21`: 3.04%.

These data come from ChEMBL document CHEMBL4513135, “CO-ADD screening of IQOG CSIS (Spain) compounds”.
